Assay results reported in the supplement of paper PMC3334620.
Over roughly 33,000 sequences, “E-score (-0.5 to 0.5)” has its median near -0.012; the highest 2% begin near 0.29. Some of the results follow.

biological target: T1, Ybr033w (UniProt P38073); test: PBM E-score (8-mer binding enrichment) (E-score (-0.5 to 0.5)); higher = stronger / more preferred TF binding; most listed sequences are background and not binding sites; details: protein concentration: 200 nM; construct: GST-full length
T1 sequence: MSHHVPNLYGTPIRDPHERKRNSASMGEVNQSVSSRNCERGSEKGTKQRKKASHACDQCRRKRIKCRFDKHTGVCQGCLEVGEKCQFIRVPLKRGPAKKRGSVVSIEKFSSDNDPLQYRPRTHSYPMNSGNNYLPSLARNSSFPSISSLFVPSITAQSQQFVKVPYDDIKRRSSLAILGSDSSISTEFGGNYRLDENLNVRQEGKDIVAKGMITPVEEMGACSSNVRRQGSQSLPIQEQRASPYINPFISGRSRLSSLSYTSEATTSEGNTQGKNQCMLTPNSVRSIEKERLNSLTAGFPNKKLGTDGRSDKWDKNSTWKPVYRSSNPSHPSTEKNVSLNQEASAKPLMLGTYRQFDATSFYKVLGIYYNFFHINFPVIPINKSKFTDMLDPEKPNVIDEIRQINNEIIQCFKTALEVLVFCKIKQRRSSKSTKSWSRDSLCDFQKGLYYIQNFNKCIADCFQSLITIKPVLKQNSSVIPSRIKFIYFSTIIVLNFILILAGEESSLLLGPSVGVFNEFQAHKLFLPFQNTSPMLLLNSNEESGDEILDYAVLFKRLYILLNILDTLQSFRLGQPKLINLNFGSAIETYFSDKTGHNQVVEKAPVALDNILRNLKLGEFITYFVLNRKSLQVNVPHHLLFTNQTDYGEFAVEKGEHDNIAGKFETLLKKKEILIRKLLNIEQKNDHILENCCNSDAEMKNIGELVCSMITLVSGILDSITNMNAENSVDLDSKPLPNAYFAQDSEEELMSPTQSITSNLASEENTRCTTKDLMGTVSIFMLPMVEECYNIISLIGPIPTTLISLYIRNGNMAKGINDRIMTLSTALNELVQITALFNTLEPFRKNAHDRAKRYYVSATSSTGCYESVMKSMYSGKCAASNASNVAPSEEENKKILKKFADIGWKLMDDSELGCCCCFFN
Summary of the method: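 For each ungapped eight-base word taken together with its reverse complement, the Universal PBM Analysis Suite assigned an E-score. Binding data came from GST-tagged yeast transcription factors, applied at about 100-200 nM, on universal all-10-mer Agilent arrays made double-stranded by primer extension. Fluorescent anti-GST marked bound protein, and scans were normalised with masliner.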

Sequence	PBM E-score
ATTCGTAC	0.142
GAGCACTA	0.0778
ATCGCAAA	0.226
GCTAATCA	0.0476
AGCGTTGG	-0.308
GCTGCCCA	-0.153
AAGATGGA	0.0115
CGAAGTCA	-0.0609
ATTCGCTC	0.136
TATTGCCA	0.0304
GCGCTGGA	0.0122
TACCTAGA	-0.0283
AAACAAAA	0.228
CCCGCAAA	-0.0454
ACAAAAAA	0.18
AACTAGGG	-0.143
CTCGCCTA	0.0619
CACTGTCA	-0.0717
CGCGAGAA	-0.105
CAGGAAAA	0.387
CCGTATGC	-0.0287
AACCTAAG	0.00876
CAGAAGGA	-0.179
GTCCATGA	-0.0868
GCGCGACC	-0.145

Sequence	PBM E-score
AACAGATG	-0.0312
TTCTTAAA	0.138
CAGTTAAA	0.192
AGCCCTCG	-0.314
GGAAATCC	-0.00538
GACGACGA	-0.219
AAAAACCA	0.259
CATGTGAG	-0.328
GCGATAAC	-0.00105
AAAGACAT	-0.058
TACAAATA	0.192
ATACGTCG	0.0204
CGACCATA	0.0381
AGCCCGCT	-0.271
AGACTGAG	0.00821
GGTATTAA	0.166
AGGGGCAT	-0.204
AAAGTTAC	0.224
CATTTGTA	0.267
CGGACCAC	0.0108
CGAACTAA	0.0954
ACGGACTG	-0.194
CGCCTGCA	-0.397
ACGGTCAA	0.162
CCGATTCG	0.149

Sequence	PBM E-score
CCTGGGAA	0.00617
ATAACCCG	-0.00026
AACGATAA	0.115
CATTACGA	0.0351
AAAGGATC	0.0664
CGTCATCC	-0.0466
CCTGATCA	-0.0707
AGGACGTC	-0.175
AGCAGAGC	-0.0843
AGCATCTC	-0.0481
CCTCTAAA	-0.0537
ATAAAGGG	-0.176
GCCTTGCA	-0.121
ACAATGCC	-0.0228
GCACAAAA	0.218
GACTGTAC	-0.349
CTCGCAAA	-0.0546
GTCCCTAA	-0.144
CACCATCG	-0.291
ACCCTCTC	-0.211
GTTTAGGA	-0.129
ATTGGCGA	-0.0862
CTTGGATA	0.0816
ACCAGTAG	0.137
AAGGGTCT	-0.178

Sequence	PBM E-score
AATCACCT	0.163
AGAGCGGA	-0.0345
ATCTCATC	0.0762
AGCCTCAT	-0.273
AAGGACTT	-0.203
CATGGTTA	0.156
AAACTCTC	0.155
CGAACCCA	-0.118
AGTGTGAG	-0.0322
CTGTACGA	0.0823
CGCCACCG	-0.177
CAAATCCA	0.0838
CGACAATA	0.126
AGATTGCC	-0.0485
CATCCGTC	0.0296
GTGATACA	0.0685
TCGCATAA	0.21
ATTAGCCC	-0.0626
ATGCCTGA	-0.0152
GTCCTTCA	-0.0408
CTCCCAAG	-0.115
AATACAGT	0.016
GACCTGCA	-0.148
ACATACAA	0.161
AAAGGGTT	-0.134

Sequence	PBM E-score
CGAACGTC	-0.122
AAGTTTAA	0.139
CTCACGTA	-0.101
CACTCGGG	-0.0754
CCCCAGCG	-0.299
TACCCCAA	-0.15
AAACCCTG	-0.0096
CATACAAA	0.246
AACGAGAC	-0.0496
AAAATTAG	0.179
AGGTGCTG	0.0932
ATTGCGCG	-0.123
ATCATTTA	0.336
GGAAGCAA	-0.0265
GACACGGC	-0.213
CATAAGGC	0.0225
AAAGATAT	0.232
ACCTAATC	0.161
TCGCAGCA	0.0667
CACGCCCG	-0.277
CCAGATTC	-0.16
ATGTGGAG	-0.0381
GAATGCCC	-0.213
GAAACATC	0.0437
CTGACCAG	-0.146

Sequence	PBM E-score
AGCGAGAG	0.00928
ATAGACGG	0.0323
AGTAGAGG	-0.227
GCCACGAC	-0.0933
AGTTACGC	0.0115
TAACTGTA	0.18
AATGACCT	0.00023
ATTGGAAC	0.178
CTCTGTTA	-0.0214
CCATGGAA	0.201
GTGTGGAA	0.136
AGGTGATG	-0.257
GAAAGGAA	-0.0127
TAGTATCA	0.319
CTACATCA	-0.0278
GCACTGTA	0.0862
ACCTCGTG	-0.00908
CTCTAATA	0.206
AACAGCCA	0.18
ACGACCGG	-0.141
AAACTGAA	0.156
ATTATGTG	0.11
AAGGGTTC	-0.0274
ACTTATTG	0.0631
ACTTCGCC	-0.0391

Sequence	PBM E-score
ATGTCGTC	0.0324
CCACGATA	-0.0117
CCTTTACA	0.0118
GGGCCTAA	-0.269
AAGGATAC	0.0266
CGAGTTCA	-0.00581
GCCCTGCA	-0.149
CGGCTGTA	-0.146
AAGATACC	0.118
AACCGAAG	-0.00014
AGACGTAA	0.00773
CTCCTGAA	-0.0383
GGATAGAA	0.126
CCTGCGAG	-0.129
GCTAGACA	-0.0654
ACCGAGAT	0.0351
TGATTAAA	0.27
ACAGGCTA	-0.0126
ATTTTAAG	0.12
CATTTTCG	0.0456
AGGTAACG	-0.139
AAGGGCGT	-0.0443
